Paper PMC10444538
These are yes or no findings as the source states them, for the method shown. Binding seen in cells or lysates may run through a third protein. Some results given as binding are weak or reduced against the parent protein; the word gives no strength. Sequences can lack the tags named with a protein. Values belong to the molecule of their own block, whether it stands above or below them.

Protein sequences, listed by entry. Tags and fused reporters are not part of them.
UniProt Q96L34: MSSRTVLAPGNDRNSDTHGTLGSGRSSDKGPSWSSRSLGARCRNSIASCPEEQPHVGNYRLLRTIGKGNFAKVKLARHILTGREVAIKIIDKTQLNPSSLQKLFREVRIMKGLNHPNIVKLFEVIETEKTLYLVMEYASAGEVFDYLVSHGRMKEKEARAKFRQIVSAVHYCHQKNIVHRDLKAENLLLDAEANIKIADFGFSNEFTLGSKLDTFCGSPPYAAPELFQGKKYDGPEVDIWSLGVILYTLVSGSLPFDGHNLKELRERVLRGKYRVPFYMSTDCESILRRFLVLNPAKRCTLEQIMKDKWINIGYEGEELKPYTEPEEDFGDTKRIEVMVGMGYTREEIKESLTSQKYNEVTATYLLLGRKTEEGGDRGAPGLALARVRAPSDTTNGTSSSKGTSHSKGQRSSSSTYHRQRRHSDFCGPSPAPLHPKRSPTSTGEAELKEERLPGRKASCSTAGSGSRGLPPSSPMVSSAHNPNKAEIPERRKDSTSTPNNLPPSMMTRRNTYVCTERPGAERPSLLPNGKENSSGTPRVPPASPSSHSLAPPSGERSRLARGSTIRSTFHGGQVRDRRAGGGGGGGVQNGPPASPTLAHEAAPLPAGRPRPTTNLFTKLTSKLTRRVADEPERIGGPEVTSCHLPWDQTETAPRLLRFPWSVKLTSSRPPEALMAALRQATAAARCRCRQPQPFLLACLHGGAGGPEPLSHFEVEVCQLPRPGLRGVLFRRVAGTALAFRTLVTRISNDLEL
UniProt Q8CIP4: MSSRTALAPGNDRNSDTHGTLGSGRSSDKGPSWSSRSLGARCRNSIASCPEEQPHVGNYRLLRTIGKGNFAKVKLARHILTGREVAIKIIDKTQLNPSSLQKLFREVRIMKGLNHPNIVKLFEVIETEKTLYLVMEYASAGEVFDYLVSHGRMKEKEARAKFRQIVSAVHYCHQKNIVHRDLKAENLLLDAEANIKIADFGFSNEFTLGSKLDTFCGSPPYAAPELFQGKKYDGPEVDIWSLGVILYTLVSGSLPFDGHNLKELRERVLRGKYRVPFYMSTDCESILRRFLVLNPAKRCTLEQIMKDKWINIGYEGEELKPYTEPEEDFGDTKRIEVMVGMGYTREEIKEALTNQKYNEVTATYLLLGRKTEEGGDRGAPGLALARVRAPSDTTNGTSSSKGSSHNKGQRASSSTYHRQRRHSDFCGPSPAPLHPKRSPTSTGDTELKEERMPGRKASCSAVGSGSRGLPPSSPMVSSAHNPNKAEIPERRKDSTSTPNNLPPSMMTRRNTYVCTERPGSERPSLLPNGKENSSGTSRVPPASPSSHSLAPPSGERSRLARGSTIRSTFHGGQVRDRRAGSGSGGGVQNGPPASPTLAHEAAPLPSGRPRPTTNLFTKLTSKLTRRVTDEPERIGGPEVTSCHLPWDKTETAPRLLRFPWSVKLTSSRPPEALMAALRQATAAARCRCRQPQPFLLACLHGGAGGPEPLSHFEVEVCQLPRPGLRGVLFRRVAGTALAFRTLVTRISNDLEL

How the values were obtained:
[1] = target: T1, Mitofusin 2 (MFN2), endogenous (mouse (endogenous in Neuro-2a and C2C12)) (UniProt Q80U63); test: proximity ligation; in situ PLA (Duolink) on fixed C2C12 cells expressing mitoGFP or GFP-ER; colocalisation of PLA dots with the GFP-positive organelles
T1 sequence: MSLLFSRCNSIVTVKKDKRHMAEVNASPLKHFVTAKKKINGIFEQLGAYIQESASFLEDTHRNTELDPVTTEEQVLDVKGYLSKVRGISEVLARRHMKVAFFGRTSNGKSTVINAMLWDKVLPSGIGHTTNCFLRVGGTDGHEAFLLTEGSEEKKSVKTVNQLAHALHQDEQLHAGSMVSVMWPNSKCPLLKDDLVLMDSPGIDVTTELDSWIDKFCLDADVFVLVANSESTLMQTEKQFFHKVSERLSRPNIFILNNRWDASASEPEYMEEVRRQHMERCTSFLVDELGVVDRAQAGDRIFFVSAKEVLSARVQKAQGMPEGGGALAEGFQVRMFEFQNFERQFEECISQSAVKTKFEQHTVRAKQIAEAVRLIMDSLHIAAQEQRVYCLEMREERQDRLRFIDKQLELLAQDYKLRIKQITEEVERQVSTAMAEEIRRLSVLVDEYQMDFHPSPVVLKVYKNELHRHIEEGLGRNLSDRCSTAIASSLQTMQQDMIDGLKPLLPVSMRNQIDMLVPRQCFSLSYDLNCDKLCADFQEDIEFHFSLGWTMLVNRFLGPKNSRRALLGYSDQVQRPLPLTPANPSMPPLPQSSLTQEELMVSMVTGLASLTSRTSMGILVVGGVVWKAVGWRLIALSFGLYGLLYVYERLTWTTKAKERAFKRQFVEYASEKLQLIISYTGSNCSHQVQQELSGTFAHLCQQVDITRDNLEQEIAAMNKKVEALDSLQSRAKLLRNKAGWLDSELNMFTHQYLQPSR

[2] = target: T1, Mitofusin 2 (MFN2), endogenous (mouse (endogenous in Neuro-2a and C2C12)); test: co-IP; endogenous proteins; Neuro-2a cell lysates, IP with anti-MARK4 or anti-MFN2 antibodies and Protein A Sepharose beads, 4 h at 4°C; binding buffer 50 mM Tris-Cl pH 8.0, 150 mM NaCl, 5 mM EDTA, 5 mM EGTA, 10% glycerol, 10 mM NaF, 0.1% NP-40
[3] = target: T1, Mitofusin 2 (MFN2), endogenous (mouse (endogenous in Neuro-2a and C2C12)); test: proximity ligation; in situ PLA (Duolink) on fixed Neuro-2a cells with rabbit anti-MARK4 and mouse anti-MFN2 antibodies; no signals with a single antibody
human MARK4-MYC (human) = human MARK4-MYC (human) (UniProt Q96L34); test: co-IP; lysates of 293T cells transfected with MARK4-MYC and FLAG-tagged MFN2 constructs; which tag was precipitated is not stated
[4] = target: Microtubule affinity-regulating kinase 4 (MARK4), endogenous (mouse (endogenous in Neuro-2a and C2C12)) (UniProt Q8CIP4); test: co-IP; endogenous proteins; Neuro-2a cell lysates, IP with anti-MARK4 or anti-MFN2 antibodies and Protein A Sepharose beads, 4 h at 4°C; binding buffer 50 mM Tris-Cl pH 8.0, 150 mM NaCl, 5 mM EDTA, 5 mM EGTA, 10% glycerol, 10 mM NaF, 0.1% NP-40

binding [1]: binds
binding [2]: binds
binding [3]: binds
Molecule: Microtubule affinity-regulating kinase 4 (MARK4), endogenous (from UniProt Q8CIP4 1-752) (enzyme)

binding [4]: binds
B2: Mitofusin 2 (MFN2), endogenous (protein, UniProt Q80U63 1-757)
chain: T1 sequence

More lines, now with the values behind:

B1: FLAG-tagged full-length human MFN2 (amino acid 1-757) (protein, UniProt O95140-1 1-757)
chain: MSLLFSRCNSIVTVKKNKRHMAEVNASPLKHFVTAKKKINGIFEQLGAYIQESATFLEDTYRNAELDPVTTEEQVLDVKGYLSKVRGISEVLARRHMKVAFFGRTSNGKSTVINAMLWDKVLPSGIGHTTNCFLRVEGTDGHEAFLLTEGSEEKRSAKTVNQLAHALHQDKQLHAGSLVSVMWPNSKCPLLKDDLVLMDSPGIDVTTELDSWIDKFCLDADVFVLVANSESTLMQTEKHFFHKVSERLSRPNIFILNNRWDASASEPEYMEEVRRQHMERCTSFLVDELGVVDRSQAGDRIFFVSAKEVLNARIQKAQGMPEGGGALAEGFQVRMFEFQNFERRFEECISQSAVKTKFEQHTVRAKQIAEAVRLIMDSLHMAAREQQVYCEEMREERQDRLKFIDKQLELLAQDYKLRIKQITEEVERQVSTAMAEEIRRLSVLVDDYQMDFHPSPVVLKVYKNELHRHIEEGLGRNMSDRCSTAITNSLQTMQQDMIDGLKPLLPVSVRSQIDMLVPRQCFSLNYDLNCDKLCADFQEDIEFHFSLGWTMLVNRFLGPKNSRRALMGYNDQVQRPIPLTPANPSMPPLPQGSLTQEEFMVSMVTGLASLTSRTSMGILVVGGVVWKAVGWRLIALSFGLYGLLYVYERLTWTTKAKERAFKRQFVEHASEKLQLVISYTGSNCSHQVQQELSGTFAHLCQQVDVTRENLEQEIAAMNKKIEVLDSLQSKAKLLRNKAGWLDSELNMFTHQYLQPSR
binding (human MARK4-MYC (human)): binds

B3: FLAG-tagged human MFN2 truncated construct G (amino acid 1-350) (domain or fragment, UniProt O95140-1 1-350)
chain: MSLLFSRCNSIVTVKKNKRHMAEVNASPLKHFVTAKKKINGIFEQLGAYIQESATFLEDTYRNAELDPVTTEEQVLDVKGYLSKVRGISEVLARRHMKVAFFGRTSNGKSTVINAMLWDKVLPSGIGHTTNCFLRVEGTDGHEAFLLTEGSEEKRSAKTVNQLAHALHQDKQLHAGSLVSVMWPNSKCPLLKDDLVLMDSPGIDVTTELDSWIDKFCLDADVFVLVANSESTLMQTEKHFFHKVSERLSRPNIFILNNRWDASASEPEYMEEVRRQHMERCTSFLVDELGVVDRSQAGDRIFFVSAKEVLNARIQKAQGMPEGGGALAEGFQVRMFEFQNFERRFEECIS
binding (human MARK4-MYC (human)): binds

B4: FLAG-tagged human MFN2 truncated construct ΔN (amino acid 601-757) (domain or fragment, UniProt O95140-1 601-757)
chain: VSMVTGLASLTSRTSMGILVVGGVVWKAVGWRLIALSFGLYGLLYVYERLTWTTKAKERAFKRQFVEHASEKLQLVISYTGSNCSHQVQQELSGTFAHLCQQVDVTRENLEQEIAAMNKKIEVLDSLQSKAKLLRNKAGWLDSELNMFTHQYLQPSR
binding (human MARK4-MYC (human)): no binding

B5: FLAG-tagged human MFN2 truncated construct N (amino acid 1-600) (domain or fragment, UniProt O95140-1 1-600)
chain: MSLLFSRCNSIVTVKKNKRHMAEVNASPLKHFVTAKKKINGIFEQLGAYIQESATFLEDTYRNAELDPVTTEEQVLDVKGYLSKVRGISEVLARRHMKVAFFGRTSNGKSTVINAMLWDKVLPSGIGHTTNCFLRVEGTDGHEAFLLTEGSEEKRSAKTVNQLAHALHQDKQLHAGSLVSVMWPNSKCPLLKDDLVLMDSPGIDVTTELDSWIDKFCLDADVFVLVANSESTLMQTEKHFFHKVSERLSRPNIFILNNRWDASASEPEYMEEVRRQHMERCTSFLVDELGVVDRSQAGDRIFFVSAKEVLNARIQKAQGMPEGGGALAEGFQVRMFEFQNFERRFEECISQSAVKTKFEQHTVRAKQIAEAVRLIMDSLHMAAREQQVYCEEMREERQDRLKFIDKQLELLAQDYKLRIKQITEEVERQVSTAMAEEIRRLSVLVDDYQMDFHPSPVVLKVYKNELHRHIEEGLGRNMSDRCSTAITNSLQTMQQDMIDGLKPLLPVSVRSQIDMLVPRQCFSLNYDLNCDKLCADFQEDIEFHFSLGWTMLVNRFLGPKNSRRALMGYNDQVQRPIPLTPANPSMPPLPQGSLTQEEFM
binding (human MARK4-MYC (human)): binds
